# Results published in patent US12318380B2, “Treatment of demyelinating diseases” (priority 2018, dated 2025).
# Assays:
# [1] = test system: experimental autoimmune encephalomyelitis (EAE) model of MS
# [2] = test system: experimental autoimmune encephalomyelitis (EAE) model of MS; test: EAE model of MS in male mice, treatment from disease onset; type: in vivo, male C57BL/6 mice; settings: 0.01 mg/kg i.p. daily from disease onset
# [3] = test system: experimental autoimmune encephalomyelitis (EAE) model of MS; test: EAE model of MS, daily disease score, treatment from day 17; type: in vivo, female C57BL/6 mice
# [4] = 0.003-0.1 mg/kg i.p. daily from disease onset
# [5] = nalfurafine 0.01 mg/kg i.p. daily, clemastine fumarate 10 mg/kg i.p., from disease onset
# [6] = treated before disease onset, 0.3, 0.1 or 0.03 mg/kg i.p. daily from day 17
smiles,measurement,setting,value
"CN(C(=O)/C=C/c1ccoc1)[C@@H]1CC[C@@]2(O)[C@H]3Cc4ccc(O)c5c4[C@@]2(CCN3CC2CC2)[C@H]1O5 [nalfurafine, (E)-N-[(4R,4aS,7R,7aR,12bS)-3-(cyclopropylmethyl)-4a,9-dihydroxy-1,2,4,5,6,7,7a,13-octahydro-4,12-methanobenzofuro[3,2-e]isoquinoline-7-yl]-3-(furan-3-yl)-N-methylprop-2-enamide]","disease score, recovery",[1]; 0.01 mg/kg i.p. daily for only four days from disease onset,does not enhance recovery
same,"disease score, recovery",[1]; 0.01 mg/kg i.p. daily throughout the experimental course,does enhance recovery effectively
same,number of days in recovery,[1]; [4],enables a sustained functional recovery
same,percentage of mice recovered (score ≤0.5 by day 23 post treatment initiation),[1]; [4],0.003-0.1 mg/kg all show a significant effect
same,peak disease score during the first EAE episode,"[1]; 0.3, 0.1, 0.03, 0.01 or 0.003 mg/kg i.p. daily from disease onset",no difference in peak disease score was found at any dose
same,"disease score, recovery from paralysis","[1]; 0.3, 0.1, 0.03, 0.01 or 0.003 mg/kg i.p. daily from disease onset (score ≥1)","recovery from paralysis, which is complete at some doses (0.01 and 0.03 mg/kg)"
same,Mouse dose for EAE (effective dose shown in FIG. 10),[1]; i.p. daily from disease onset,3 µg/kg/day
same,dose at which nalfurafine shows the most rapid recovery,[1]; i.p. daily from disease onset (Example 10),0.01 mg/kg
same,disease score reached (full recovery),"[1]; in the examples described, except the short 4-day course",< 0.5
same,number of days in recovery,[1]; [5],have a sustained recovery
same,percentage of mice recovered (score <0.5 by day 23),[1]; [5],all of the mice recover
same,"disease score, functional recovery","[1]; nalfurafine 0.01 mg/kg i.p. daily, clemastine fumarate 10 mg/kg i.p., from disease onset, separate experiments",superior to clemastine fumarate in this model
same,"disease score, functional recovery from paralysis",[2],effective at enabling functional recovery from paralysis in both females and males
same,number of days in recovery,[2],enables a sustained functional recovery
same,percentage of mice recovered (score ≤0.5 by day 23),[2],promotes full recovery
same,"disease score (0-5), recovery from paralysis","[3]; 0.3, 0.1, 0.03 or 0.01 mg/kg i.p. daily from day 17, over 45 days","recovery from paralysis, which is complete at some doses (0.1 and 0.03 mg/kg)"
same,total disability (AUC of daily disease score),"[3]; 0.3, 0.1 or 0.03 mg/kg i.p. daily from day 17, by day 45",significantly lower total disability
same,total disability (AUC of daily disease score),[3]; doses of 0.03 and 0.1 mg/kg i.p. daily from day 17,greatest effect at reducing disability
same,dose at which nalfurafine shows the most rapid recovery,[3]; i.p. daily from day 17 (Example 1),0.1 mg/kg
same,onset of disease,[3]; [6],did not alter the onset of disease
same,recovery from paralysis (disease score),[3]; [6],rapid recovery from paralysis compared to vehicle-treated mice

# Read-outs that look alike come from different tables or passages of the source.
